In article PMC12040169 (PLOS Biology, 2025):
This is one part of the list.

System: T1, C. trachomatis L2/434/Bu expressing GFP (CTL2-GFP)
T1 construct: L2/434/Bu GFP intracellular growth in HeLa cells
Parameters: species or system HeLa; C. trachomatis total inclusion area by high-content imaging, normalised to DMSO
Conditions: total inclusion area; 28.5 h, 10 µM; inhibitor
Method in brief: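 Host cell viability was gauged from Hoechst-stained nuclei counts, while chlamydial growth was taken from total inclusion area and inclusion number per well. Cells were fixed and imaged by high-content microscopy once bulk GFP and resorufin fluorescence had been measured.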

Row | SMILES | % of control remaining
1 | Cc1ccc(S(=O)(=O)NCCSCc2ccc(Cl)c(Cl)c2)cc1[N+](=O)[O-] [CBK264675] | 99.7723
2 | COC(=O)c1c(NC(=S)Nn2cnnc2)sc2c1CCC(C)C2 (centres unmarked) [CBK266942] | 122.972
3 | CCc1nc2ccc(C(=O)NCC3CCCCC3)cn2c1N(C)Cc1ccc(OC)cc1 [CBK145568] | 114.908
4 | Cn1nc(C(=O)NCC(c2ccccc2Cl)N2CCOCC2)ccc1=O (centres unmarked) [CBK305886] | 90.1156
5 | COC(=O)CCn1c(=O)c2c(nc3oc(C)c(C)n32)n(C)c1=O [CBK306033] | 106.053
6 | O=C(O)[C@H]1CN(C(=O)c2ccco2)C[C@@H]1c1ccc(F)cc1 [CBK283735] | 54.8024
7 | OCCn1ncc2c(NCc3nncn3-c3ccccc3)ncnc21 [CBK304608] | 83.9176
8 | CS(=O)(=O)N1CC2(CCN(CCc3c[nH]c4ccccc34)CC2)c2ccccc21 [CBK084017T] | 88.9711
9 | COc1ccc(C(=O)N2CCC3(CCN(Cc4c(F)cccc4F)C3)C2)cc1OC (centres unmarked) [CBK132152] | 40.5091
10 | O=C(N[C@H]1CCN2C(=O)c3cc(-c4ccccc4F)ccc3NC(=O)[C@@H]2C1)c1cnccn1 [CBK289558] | 98.2487
11 | COc1cccc(OCC(=O)O/N=C(\N)c2ccncc2)c1 [CBK262592] | 110.436
12 | Cc1cc(COc2nc3ccccc3nc2NC[C@@H]2CCCO2)no1 [CBK174027] | 70.7599
13 | CC(=O)Nc1ccc(-c2ccc(=O)n3c2[C@@H]2C[C@@H](CN(C(=O)c4ccccc4)C2)C3)cc1 [CBK289198] | 87.2731
14 | CN(C)c1ccc(C(=O)N2CCN3C(=O)[C@H](Cc4ccc(F)cc4)NC(=O)[C@H]3C2)cc1 [CBK289601] | 106.657
15 | Cc1[nH]c(=O)[nH]c(=O)c1C(=O)Nc1ccccc1 [CBK116181] | 84.092
16 | CCOc1cccc(CNC(=O)N2CCC(Cc3cnn(C)c3)C2)c1 (centres unmarked) [CBK305280] | 38.9965
17 | CCCCSc1nc(N)cc(N2CCC(C(=O)NCC)C2)n1 (centres unmarked) [CBK306880] | 76.7036
18 | CCCCC1(COC(C)=O)OC(=O)Nc2ccc(Br)cc21 (centres unmarked) [CBK010195] | 65.9129
19 | O=C1CC2(CCN(C(=O)C3CCCCC3)CC2)Oc2ccc(F)cc21 [CBK282863] | 78.1888
20 | OCCN(CCO)c1nc(-c2ccccc2)nc2sc(-c3ccccc3)cc12 [CBK265935] | 89.0694
21 | O=C(O)C1CCCCC1C(=O)Nc1cccc2ccccc12 (centres unmarked) [CBK261569] | 87.5856
22 | COCCNC(=O)CSc1cc(Cl)nc(Cl)c1 [CBK020796] | 68.6337
23 | Cc1cc(C)cc(OCC(=O)Nc2c(C#N)c(C)nn2C)c1 [CBK304791] | 59.983
24 | CCn1c(=O)n(CCC(=O)NC(C(N)=O)c2ccccc2)c2ccccc21 (centres unmarked) [CBK295196] | 94.6087
25 | Nc1ccc(Oc2nc(Oc3ccc(N)cc3)c(F)c(Oc3ccc(N)cc3)c2F)cc1 [CBK266397C] | 138.201

Row | SMILES | % of control remaining
26 | CCn1ncc2c1CCCC2NC1CCN(c2ccccc2F)C1=O (centres unmarked) [CBK305279] | 73.4467
27 | COc1ccccc1NC(=O)N1C[C@@H]2C[C@H](C1)c1ccc(-c3cncnc3)c(=O)n1C2 [CBK289186] | 103.977
28 | CN1CCN(Cc2nc3c(c(=O)n(C)c(=O)n3C)n2Cc2ccc(Br)cc2)CC1 [CBK269310] | 111.545
29 | COC(CNC(=O)Cn1nnnc1CN1CCC(C)CC1)c1cccs1 (centres unmarked) [CBK306958] | 93.4512
30 | Cc1cc(CN(C)Cc2cn(C)c3cc(F)ccc23)n[nH]1 [CBK281710] | 98.5483
31 | CCN(CC)C(=O)c1ccccc1NS(=O)(=O)Cc1ccccc1[N+](=O)[O-] [CBK045428] | 101.673
32 | C[C@@H](Cn1nc2c(cc1=O)CCCC2)NC(=O)Cc1ccc(F)cc1 [CBK284526] | 112.647
33 | CCCCn1nnnc1NCc1cccc(OC)c1OC [CBK288091] | 88.4615
34 | COc1ccccc1-c1noc(CCCC(=O)Nc2cccc(C(F)(F)F)c2)n1 [CBK268794] | 130.997
35 | CSc1cccc(NC(=S)N2CCC(N(C)C(C)C)CC2)c1 [CBK294463] | 83.1314
36 | O=S(=O)(c1cccs1)N1CCCN(Cc2nccs2)CC1 [CBK045172] | 103.889
37 | CN(C)c1ccc(Nc2nc(NCCO)c3ccccc3n2)cc1 [CBK268392C] | 2.277
38 | CS(=O)(=O)c1cccc(-c2nnc(NC(=O)c3ccccc3)o2)c1 [CBK287726] | 57.5523
39 | Cc1cccc(CCNC(=O)c2cccn(CC(=O)N(C)C3CCCCC3)c2=O)c1 [CBK286113] | 101.699
40 | O=S(=O)(NCc1cccc(F)c1)c1ccc(OC(F)(F)F)cc1 [CBK043379] | 79.8205
41 | Cn1c(=O)c2c(O)cc(=O)oc2c2ccccc21 [CBK003546] | 106.149
42 | CCCCCOc1ccc(Nc2ccc(-c3cccnc3)cn2)cc1 [CBK036948] | 123.159
43 | O=C(O)c1cc(S(=O)(=O)Nc2ccc(O)cc2)c(Cl)cc1Cl [CBK113231] | 99.0895
44 | O=C(CSc1nnc(-c2ccc(Cl)cc2)n1-c1ccccc1)N/N=C/c1ccco1 [CBK262996] | 76.4528
45 | Cc1cc2nc3s/c(=C\c4ccc(-c5ccc(O)c(C(=O)O)c5)o4)c(=O)n3c2cc1C [CBK262538] | 99.6909
46 | Cc1ccccc1C(=O)Nc1cccc(NC(=O)c2ccc(-c3cc4ccccc4oc3=O)cc2)c1 [CBK267256] | 113.846
47 | CCN1CCC[C@@H]1CNC(=O)c1ccncc1 [CBK174659] | 76.4332
48 | Cc1c(C(=O)C2=C(O)C(=O)N(CCN3CCOCC3)C2c2ccccn2)cnn1-c1ccccc1 (centres unmarked) [CBK266493] | 109.319
49 | CC(C)n1c(=O)n(CCN2CCCC2)c2cccnc21 [CBK283532] | 112.887
50 | O=S(=O)(Nc1nnc(C(F)(F)F)s1)c1ccc(Oc2ccccc2)cc1 [CBK062007] | 105.375
